Measurements as given in PubChem BioAssay AID1645887 (National Center for Advancing Translational Sciences (NCATS), 2021).
“And” between values parts separate entries of the source, which are not always exact repeats. Equal entries are not always repeated. In all, about 16,000 compounds went through this assay and about 40 (0.2%) were called active. Not shown: some 1% with an inconclusive outcome. The call rests on the fitted dose curve; in most records, active means well fitted activation curve with a large enough effect; inconclusive means small, poorly fitted or top-dose-only effect, or another doubt; inactive means no such curve, though single readings can be large or run the other way. This is one part of the list. Residues, ends and D or L forms follow the SMILES beside them. *: point of attachment. Cbz = O=C(OCc1ccccc1)*

Target: Rap guanine nucleotide exchange factor 4 (Homo sapiens) (UniProt Q8WZA2)
Assay: Validation qHTS for agonist of cAMP-regulated guanine nucleotide exchange factor 4 (EPAC2);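 further: exchange makes BODIPY-GDP fluorescence drop when released from Rap1B; series mostly up to about 150 µM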
Details: EPAC2 Rap1B BODIPY-GDP exchange, fluorescence; activation: stronger effect = higher value
Procedure, shortened: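 Fluorescent exchange assay: 100 nM EPAC2 with 250 nM RAP1B-BODIPY-GDP and 50 uM GDP; compound added, 5 min at room temperature, then read (ex 480/em 540 nm) every 5 min for 30 min. Normalized to 6.5 mM cAMP agonist control.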
On the % scale 0 is the no-effect control and ±100 the full control effect.

Chain of UniProt Q8WZA2 (Q8WZA2 whole entry, looked up): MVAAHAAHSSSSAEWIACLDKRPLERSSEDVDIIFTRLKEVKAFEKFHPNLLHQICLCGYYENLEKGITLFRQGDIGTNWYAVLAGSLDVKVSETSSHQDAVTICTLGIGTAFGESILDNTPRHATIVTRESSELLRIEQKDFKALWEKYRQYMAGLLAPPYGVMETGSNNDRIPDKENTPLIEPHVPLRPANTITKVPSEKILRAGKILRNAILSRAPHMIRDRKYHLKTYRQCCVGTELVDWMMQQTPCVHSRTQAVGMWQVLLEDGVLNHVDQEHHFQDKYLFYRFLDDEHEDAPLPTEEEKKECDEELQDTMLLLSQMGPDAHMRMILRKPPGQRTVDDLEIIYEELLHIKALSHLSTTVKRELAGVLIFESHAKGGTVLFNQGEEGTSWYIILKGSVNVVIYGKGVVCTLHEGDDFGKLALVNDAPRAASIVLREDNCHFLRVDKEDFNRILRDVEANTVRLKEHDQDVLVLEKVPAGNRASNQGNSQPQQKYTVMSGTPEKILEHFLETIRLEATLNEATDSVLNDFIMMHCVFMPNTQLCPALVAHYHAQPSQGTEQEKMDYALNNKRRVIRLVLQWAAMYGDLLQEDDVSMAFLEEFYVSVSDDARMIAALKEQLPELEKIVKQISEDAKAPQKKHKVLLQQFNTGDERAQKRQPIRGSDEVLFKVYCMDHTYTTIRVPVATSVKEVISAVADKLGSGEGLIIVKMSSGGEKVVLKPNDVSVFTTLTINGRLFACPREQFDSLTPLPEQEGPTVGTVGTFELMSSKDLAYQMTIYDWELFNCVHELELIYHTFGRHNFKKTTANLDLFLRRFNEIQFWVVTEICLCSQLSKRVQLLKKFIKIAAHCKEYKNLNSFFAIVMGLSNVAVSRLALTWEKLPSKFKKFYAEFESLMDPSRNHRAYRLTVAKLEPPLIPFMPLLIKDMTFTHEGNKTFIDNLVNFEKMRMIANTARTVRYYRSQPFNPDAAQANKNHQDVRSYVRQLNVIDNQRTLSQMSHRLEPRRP

activation, inactive:
CCN(CC)C1CCN(C(=O)c2cnn(-c3nccc(-c4ccccc4OC)n3)c2-c2ccco2)C1 (centres undefined) -3.49%
COc1ccc(OC)cc1 -8.62%
OCCN1CCN(CCCN2c3ccccc3Sc3ccc(Cl)cc32)CC1 -21% and 21.8% and -61.1%
COc1ccc(-c2nc3cnc(Oc4ccccc4)nc3n(C3CC3)c2=O)cc1 -12.7%
CN1CCCC2(CCN(C(=O)c3cccc(F)c3)CC2)C1 -10.5%
CC(C)C(C)(C)C(C)(C)C(C)(C)S 5.2%
c1ccc(CNc2nc(-c3ccoc3)nc3ccccc23)cc1 4.71%
CN(C)CCc1c[nH]c2ccc(Cn3cncn3)cc12 -17.7%
COc1ccc2c(c1)c1c3n2CCN(C)C3=NCC1 -1.93%
CC(C)(C)[C@@H]1CCC(=O)N(CC[C@H](Sc2ccc(Br)cc2)c2ccccc2)CC1 -20.5%
COc1ccc2[nH]c(C(O)C(O)c3nc4c(OC)c(OC)ccc4[nH]3)nc2c1OC (centres undefined) -4.69%
Cc1cnc(-n2ncc(C(=O)NCCc3cccnc3)c2C)nc1-c1cccs1 -6.85%
OC[C@H]1O[C@@H](Oc2ccc(O)cc2)[C@H](O)[C@@H](O)[C@@H]1O -12.7%
Nc1ccc(S(=O)(=O)c2ccc(N)cc2)cc1 13.8% and -34.9%
CCOC(=O)C(CCc1ccccc1)NC(C)C(=O)N1C(C(=O)O)CC2CCCC21 (centres undefined) -11.3%
COC(=O)c1ccc(-c2cccc3c2OC(CNC(=O)c2ccc4c(c2)OCCO4)C3)nc1 (centres undefined) 2.2%
COc1cc(/C=C/C(=O)O)cc(OC)c1OC 2.54%
Oc1cc(-c2cccs2)cc2c1OCCN(Cc1cn[nH]c1-c1ccc(Cl)cc1)C2 -2.13%
CC(=O)/C=C1\C(=O)N(C)c2ccccc21 -43.8%
NCCCCCCCCCCN -24.8%
Cc1ccnn1CC(=O)N1CCOc2c(cc(-c3csc4ccccc34)cc2OC2CCOC2)C1 (centres undefined) 2.7%
COc1ccccc1C(=O)N1CCOc2ccc(CN3CCN(Cc4ccccn4)CC3)cc2C1 -9.53%
COc1ccc(NC(=O)N2CCCC3(CCN(C(=O)c4ccc(OC)cc4)CC3)C2)cc1 -11.6%
N[C@@H](C(=O)O)c1ccc(C(=O)O)c(C(=O)O)c1 -2.3% [middle of 4 runs]
N#Cc1ccc(CN2CC[C@@]3(CCCN(C(=O)c4ccncc4)C3)C2)cc1 -9.71%
COc1ccc(-n2c(=O)cnc3cnc(N(C)C)nc32)cc1 -6.54%
Cc1ccccc1-c1nc(NCc2cccs2)c2ccccc2n1 2.92%
COC(=O)[C@@H]1CCCN1C(=O)c1c(OC)cc(=O)n2c1CCN(Cc1c(C)[nH]c3ccccc13)CC2 -0.341%
CN(N=O)C(=O)N[C@H]1C(O)OC(CO)[C@@H](O)[C@H]1O (some centres undefined) -5.09%
CC1(C)OC(=O)NC1=O 9.54%
O=c1c(-c2ccc(F)cc2)nc2cnc(N3CCNCC3)nc2n1Cc1ccc(F)cc1 -8.6%
CS(=O)(=O)N1CCC2(CCN(Cc3nccs3)CC2)CC1 -8.36%
Nc1ccc(C(=O)NCC(=O)O)cc1 -4.08% and 1.12%
COc1ccc(NS(=O)(=O)c2ccc(N)cc2)nn1 4.21% and -9.82%
COc1ccccc1CN1CC2(CCN(C(=O)c3ccncc3)CC2)C1 -9.78%
C#C[C@]1(O)CC[C@H]2[C@@H]3CCC4=Cc5oncc5CC4(C)[C@H]3CCC21C (some centres undefined) -50.9%
CCCC(=O)O[C@]1(C(=O)COC(C)=O)CC[C@H]2[C@@H]3C[C@H](F)C4=CC(=O)C=C[C@]4(C)[C@@]3(F)[C@@H](O)C[C@@]21C -0.176%
O=C(c1cccc(F)c1)N1CCC2(CC1)CN(Cc1ccccc1)C2 4.34%
Cn1nnnc1SCC1=C(C(=O)O)N2C(=O)[C@@H](NC(=O)[C@H](O)c3ccccc3)[C@H]2SC1 -12.4%
COCCn1c(=O)c(CCc2ccccc2)nc2cnc(Oc3ccc(OC)cc3)nc21 -11.5%
Cc1csc(C)[n+]1CCC1CCCCC1 -2.4%
O=C1C2=C(S[C@@H]3O[C@H](CO)[C@@H](O)[C@H](O)[C@H]3O2)C(=O)c2ccccc21 -9.79%
CN(C)c1nc(-c2cccnc2)nc2ccccc12 -4.79%
O=C(O)c1cc(O)c2c(c1)[O][Bi][O]2 1.7%
CN1CCN(c2ncc3nc(-c4ccc(Cl)cc4)c(=O)n(Cc4ccc(F)cc4)c3n2)CC1 -6.25%
CCCCC(C)(O)C/C=C/[C@H]1[C@H](O)CC(=O)[C@@H]1CCCCCCC(=O)OC (some centres undefined) -19.4%
CCC1(O)CC2CN(CCc3c([nH]c4ccccc34)[C@@](C(=O)OC)(c3cc4c(cc3OC)N(C)C3[C@]45CCN4CC=C[C@@](CC)([C@@H](OC(C)=O)[C@]3(O)C(=O)OC)[C@H]45)C2)C1 (some centres undefined) 7.14%
Cc1ccc2cc(CNCc3cccc4ccccc34)c(N3CCC(O)CC3)nc2c1 -8.51%
CCCCC/C=C\C\C=C/C=C/C=C/[C@@H](SCC(NC(C)=O)C(=O)O)[C@@H](O)CCCC(=O)O (some centres undefined) 4.36%
NC(C(=O)O)C(O)C(=O)O (centres undefined) -12.8%
Cc1ncc(CSSCc2cnc(C)c(O)c2CO)c(CO)c1O -4.13%
N#Cc1cccc(-c2cncnc2NCc2ccccc2)c1 -9.93%
C[C@H](CCC(=O)O)[C@H]1CC[C@H]2[C@H]3C(C[C@H](O)[C@]12C)[C@@]1(C)CC[C@@H](O)C[C@H]1C[C@H]3O (some centres undefined) -4.43%
C=C[C@@H]1c2ccccc2N(S(=O)(=O)c2ccc(C)cc2)[C@H](c2ccc(C(F)(F)F)cc2)C1(C#N)C#N -21.4%
NCCn1c(=O)c(CCc2ccccc2)nc2cncnc21 -2.18%
CCC1(C2CCN(Cc3cccc(Cl)c3)CC2)NC(=O)N(CC2COc3ccccc3O2)C1=O (centres undefined) 8.42%
COc1ccccc1CN1CCCC2(CCN(C(=O)c3cnccn3)CC2)C1 -15.6%
O=C(NC1CCC(=O)N(CCSc2ccccc2)CC1)OCc1ccccc1 (centres undefined) -15.9%
Nc1nc(Cl)nc2c1ncn2[C@@H]1O[C@H](COP(=O)(O)OP(=O)(O)OP(=O)(O)O)[C@@H](O)[C@H]1O 2.2%
CC(=O)Oc1cccc2c1C(=O)c1c(OC(C)=O)cc(C(=O)O)cc1C2=O -25.9%
C#C[C@]1(O)CC[C@@H]2[C@H]3CCC4=CC(=O)CC[C@H]4[C@H]3C(=C)C[C@@]21CC -15.7%
COc1ccccc1CNc1nc(-c2cccc(C#N)c2)nc2ccccc12 12.8%
CC(C)C[C@@H](C=O)NC(=O)[C@H](CC(C)C)NC(=O)[C@H](CC(C)C)NC(=O)OCc1ccccc1 (Cbz-Leu-Leu-Leu-aldehyde) 2.4%
COc1cc(OC)c(/C=C/c2ccccn2)c(OC)c1 -21.2%
COc1ccc(C(C)N(C)Cc2nc(N3CCN(C(=O)c4ccco4)CC3)c3ccccc3n2)cc1 (centres undefined) 4.59%
Cc1ccc(CNc2nc(CN3CCSCC3)nc3ccccc23)o1 12.9%
COCCN1CCN(C(=O)c2cnn(-c3nccc(-c4ccco4)n3)c2C(C)C)CC1 -0.691%
CCCCN1CC[C@H]2C=CC[C@@H](C(=O)Nc3nccs3)[C@H]2C1=O -8.44%
Nc1ccn([C@H]2CS[C@@H](CO)O2)c(=O)n1 6.23%
Cc1nc2cc(NC(=O)C3CC34CCN(Cc3ccc(O)c(Cl)c3)CC4)ccc2s1 (centres undefined) 7.25%
COc1ncc2nc(-c3ccccc3)c(=O)n(C)c2n1 -1.94%
COCC(=O)N1CCC2(CCN(Cc3ccncc3)CC2)CC1 -14.3%
COc1cccc(-c2ccc3ncnc(NCCN4CCOCC4)c3c2)c1 -6.34%
O=S1(=O)[C@H]2C[C@@H]3C=C[C@@]2(CN1Cc1cccc(F)c1)O3 -14.7%
CN1CCN(c2ncc3nc(CCc4ccccc4)c(=O)n(Cc4ccc(F)cc4)c3n2)CC1 6.18%
C=C1C[C@H]2[C@@H]3C=C(C)C4=CC(=O)CC[C@]4(C)[C@H]3CC[C@]2(C)[C@@]1(OC(C)=O)C(C)=O -3.47%
C[C@H](N)CCP(=O)(O)O -2.79%
O=C(c1cccc(F)c1)N1CCC2(CC1)CN(c1ncccn1)C2 1.34%
COC(=O)C[C@](O)(CCCC(C)(C)O)C(=O)O[C@@H]1C(OC)=CC23CCCN2CCc2cc4c(cc2[C@H]13)OCO4 (some centres undefined) -24.8%
c1ccc(CNc2ccnc(-c3cccnc3)n2)cc1 -29.2%
O=c1oc(Cl)c(Cl)c2ccccc12 0.201%
O=C(NCc1ccccn1)c1cnn(-c2ncc3c(n2)-c2ccccc2CC3)c1C1CC1 -10.1%
CC1=C(\C=C/C(C)=C/C=C\C(C)=C\C(=O)O)C(C)(C)CCC1 -18.3% and -14.5% and -3.87%
Cc1cc(-c2ccnc(-n3ncc(C(=O)NCC4CCCN(C)C4)c3C3CC3)n2)c(C)s1 (centres undefined) -15.9%
